First the molecules themselves.
B1: LINE1-mini (parent)
chain: GGCAGAGCUCAACACAGCGUGGCAAAGUGGCUGUGGCUAGACUGCC

The values that follow come from the RNAGym collection of RNA variant scans (doi:10.7554/elife.90254).

The source gives no read counts; variants with many changes may rest on few reads.

This series covers variants of B1. Kind of series: self-cleavage, relative activity (ratio to wild type); higher = more cleavage; in vitro, sequencing; the parent is a self-cleaving ribozyme.
On to G1U C3A C8U A26C, for which the self-cleavage was 0.55. As for C8U A24G U38A, the self-cleavage is 0.28. As to G5A C10G C13A A25U, the self-cleavage turned out to be 0.04. Then A24C G33A U34C, with 0.01; and G1C A4G C10U G22C G30U G33A, with 0.02. The figure for G7A A12C A16U C23G C42U C46G is 0.01. As for U9G G29A G35A, the self-cleavage came out at 0.09. The figure for C15A U34G G35C A41U is 0.04. C13U A26U G29U C45G: the self-cleavage worked out at 0.05. Then G33U G35U C46A, with 0.01; and G7A C8A G17C C42A, with 0.59; and G36C U38A G40A, with 0.02. In the case of A6C A12U A14C C18U C37A C46A, the self-cleavage came out at 0. With A4G G19U U20G G27C G36A G44A, the self-cleavage amounted to 0.05.

Take G5A C15U G44A: the self-cleavage came to 0.06.

Turning to C15A G17C G29A C42U C46A, the self-cleavage came out at 0.02. Then G7C G30C G35U, with 0.18; and C31U G35C U38A, with 0.11. In the case of G5C A16U G19U U20C C31G, the self-cleavage came out at 0.01. For the variant G5U U34C U43C, the self-cleavage was determined as 0.02. Then C3U A24U C31U, with 0.03; and C3U A14U A16C U38G, with 0.11. The figure for A4U C10U G30C is 0.08; for C10G A16C G27A G35A it is 0.02. Turning to A4U G21U U28A, the self-cleavage came to 0.05. Turning to G27A G30U G33A A41U, the self-cleavage was determined as 0.15. For A4U G5A U38A, the self-cleavage came out at 0.04. The figure for G5C C8A A39U is 0.12; for A4U A14C G21U U28A G33A it is 0.03; for G7A C10G A24U C31U G40U C42U it is 0.01. Then A6C C15U G40A, with 0.04. Then C3A U9A G29U G35U, with 0.12; and G7C G30U C31A C37G G40C, with 0.01; and G1U C3U A11U, with 0.03. Regarding G7A A24G C37A, the self-cleavage stood at 0.16. In the case of G2C G5A C18U U38G, the self-cleavage amounted to 0.02. For the variant A12C G17U U38C, the self-cleavage was determined as 0.01. For C13U G30U C37G G40C, the self-cleavage is 0.07. The figure for A4G C10A U34G G44U is 0.01; for G2U G7A A24G C37U U43C it is 0.04; for C3U A4U G7U G22C A41G it is 0.33. Then G1C C3A G27C, with 0.04; and C3A G7C A12C C15A C23A G40U, with 0.02; and U20A A41C C46A, with 0.03.

As to C10G C18U A26C U32C, the self-cleavage turned out to be 0.02. For G1C A11G G22C G40C, the self-cleavage worked out at 0. Consider G33C G35C C37G, for which the self-cleavage came to 0.02. The figure for C13A G21A G27U is 0.17. Then C31A C37U A41G, with 0.04; and G5C G7C U32G, with 0.04; and G17A A24U G40U, with 0.04. Then A6G C10A A12G U38G, with 0; and G1U A16U G17C G22A A25G U32A, with 0.01; and A6G A14G G27A U28G U34A, with 0. Regarding G2U C15G C18U C42A C46G, the self-cleavage was determined as 0.01. The figure for C3U C18A C46A is 0.08. Regarding A12U C18U G30U, the self-cleavage stood at 0.08. For A16C U20A G36U, the self-cleavage amounted to 0.01. Then G21U A26G G27U, with 0.34; and G17A A24U A26C G44U, with 0.04; and G21U G30U C31A, with 0.02. On to C10A G33U G36A, for which the self-cleavage is 0.04.

Regarding A14U G17U A39G G40C, the self-cleavage came out at 0.06. The figure for G21U G22U G40C U43A is 0.08; for A16G U20A G27A G35U it is 0.02; for G7A C23A G35A it is 1.14. On to C15G G36C A41C, for which the self-cleavage amounted to 0.01. On to C18U G19A C45G, for which the self-cleavage was determined as 0.09.

As to G1U G19C U20G G21A G29U G36C C42A C46A, the self-cleavage was determined as 0.01.

In the case of A6U G7A A16U G29C, the self-cleavage was 0.02. For A4U A16C G17A C46U, the self-cleavage turned out to be 0.02. As to G2U A26G G40C, the self-cleavage was 0.03. Then G19U U34G G36U, with 0.04; and G2A G5C A14C G17A, with 0.01. Take G2U G27C U28C: the self-cleavage came to 0. The figure for A16C G17U G21U is 0.07; for U9A G35A C42G it is 0.01.

Take C18G U20C G30C: the self-cleavage came to 1.11.

For A14C C42U U43A, the self-cleavage came to 0.02. Then A4U C10A C31A, with 0.03; and G19C A25U C37U C45A, with 0.07. Regarding G2A A6C A12G C13A C37U, the self-cleavage came to 0.06.

C15G G21C A24G C37U: the self-cleavage was found to be 0.25. As to G1A G33U G35U, the self-cleavage was 0.04. The figure for C13A U28A G30A U43G is 0.02; for G2U A14C G22U it is 0.04; for A16G G30C C42G it is 0.02. Take C8A C18U C42U: the self-cleavage was determined as 0.25. Take G1U A24U G29U: the self-cleavage stood at 0.81. Then G5C G29A C31U G33U G35A C42U G44U, with 0.01. Take U20A U38G A41G: the self-cleavage stood at 0. Then G5A U9A C10G G22C C37U, with 0.03. On to C3U A6U U34A U43A, for which the self-cleavage was 0.07.

For G7U C15U C23G G30A A39G, the self-cleavage is 0. The figure for G5A A6C C10U C42G C45A is 0.02; for C8A A26G G35U it is 0.29. Then U28A C37A C42A, with 0.03; and A16C G33U U38G, with 0.01; and C15G C31A G36U, with 0.06.

As to G1C U28G C46A, the self-cleavage is 0.06. Regarding U9G G33C A41G, the self-cleavage was found to be 0.01. The figure for C8G A12G U38A is 0.18; for A14G G17U G21U C45U it is 0.03. Then G36U A41G U43A, with 0.07; and G17U A25U G27A U38A, with 0.06; and G2A A16G G21C G22A U28C, with 0.1. The figure for A12G A39U G40C G44C is 0; for A24U U28C G33C it is 0.07. As to G5C U9G G22U, the self-cleavage amounted to 0.05. As to C15A U32C C46A, the self-cleavage is 0.06. Then G1C A4G C15G G17C C18G A26C G30U U43A, with 0; and C8A C13G A26U, with 1.36. The figure for C3U A14G A24G is 0.13; for G1U C8A A11C C13G A16G G21A U28A U43G it is 0.01. Then C10A C31U G33C, with 0.05.

In the case of G1U A4G G7C C31A G35C, the self-cleavage amounted to 0.09.

Turning to G1U G7A C10G, the self-cleavage worked out at 0.02.

Take U9A A12C C18A U20G G29U C46G: the self-cleavage came to 0.05. For the variant A6G G17U C46U, the self-cleavage is 0.02.

Consider A12C A14G G44A, for which the self-cleavage was found to be 0.06. Then G1C G17C G22A, with 0.05. Then A4U A16U U20G, with 0.08; and G1U C13A A41G, with 0.07; and U9G A14U G17A C42A, with 0.31.

G7U G22U U32A: the self-cleavage came to 0.13. Turning to G27A G30U G33U U34A, the self-cleavage was found to be 0.12. Then A12U G27A G44A, with 0.23. The figure for C3A A25G G30U is 0.19; for A16U U34A G40U it is 0.07; for G1A G2U A6G G22A U34C it is 0.06. Regarding C18U G35A C42U, the self-cleavage was found to be 0.06.

As to U9G U20C A25U, the self-cleavage turned out to be 0.03.

As to C10U U28C G40U C45A, the self-cleavage turned out to be 0.03. Then G27A U34G C37A, with 0.05; and A12C C23A A25C G35U, with 0.01; and G1C C18A A25G, with 0.01. Consider U28G G30A G40A, for which the self-cleavage was determined as 0.02. Take C13U G17U C18A G33A A41C C42U: the self-cleavage came out at 0.06. Turning to G5U A24G U38C C42A G44A, the self-cleavage is 0.35. For the variant C3U G40C G44U, the self-cleavage is 0.02. Then A12C G22A G40U, with 0.02. Then A14U G30A G44A, with 0.03. Turning to G2C C8G A16G, the self-cleavage came to 0.02. Regarding G7A G17U C23A A25U G44A, the self-cleavage worked out at 0.38. For the variant U9A G17C G30A G35C, the self-cleavage came out at 0.02. With A4C C8G G22A, the self-cleavage worked out at 0.01. For the variant G27C G29A G30A, the self-cleavage was determined as 2.88. Take G2A U9G G36A: the self-cleavage amounted to 0.96.

For the variant A12U A24C G27C C37G, the self-cleavage is 0. The figure for G27U U28A A39U is 0.21; for G2U C13G G33U it is 0.06; for G5A C8G U28C it is 0.39. As to G27A U32G G36U G40C, the self-cleavage was found to be 0.03.

Turning to A11U A16C G21U G22A G30A G35C C46U, the self-cleavage turned out to be 0.01. The figure for G1C C15G G17U G22A U38C is 0.01; for C13A A25U G33U G44A it is 0; for U9G U32C C46U it is 0.44. Then G7U C8G C13U U38C, with 0.19; and C3A A4C C10A G29U G36C U38C, with 0.01. Then A6U C8U A11G G27U, with 0.01. With C10U G36U C37A, the self-cleavage was found to be 0.04. Then C8U A14C C18U A26C U28A U34A, with 0.08; and C13A A16C G17A G21A C37U, with 0.11. The figure for C3G G5C A39C is 0.37; for G2A U9A G27U U34A C46U it is 0.4; for G2U U9A C15U G17C it is 0.05. For the variant C8G C10G A11C A16C C42U, the self-cleavage was determined as 0.01.
